Test results reported in publication PMC4336329 (PLoS ONE, 2015).
Hit rate of the full screen: of about 310,000 compounds, about 2,200 (0.71%) showed an effect of 50% or more. The effect is printed as a negative number. The list shows a part of the results.

target: human ether-à-go-go-related gene (hERG) potassium channel (human, UniProt Q12809); assay: primary screen, population patch clamp on CHO cells stably expressing hERG
Sequence (Q12809 whole entry, looked up): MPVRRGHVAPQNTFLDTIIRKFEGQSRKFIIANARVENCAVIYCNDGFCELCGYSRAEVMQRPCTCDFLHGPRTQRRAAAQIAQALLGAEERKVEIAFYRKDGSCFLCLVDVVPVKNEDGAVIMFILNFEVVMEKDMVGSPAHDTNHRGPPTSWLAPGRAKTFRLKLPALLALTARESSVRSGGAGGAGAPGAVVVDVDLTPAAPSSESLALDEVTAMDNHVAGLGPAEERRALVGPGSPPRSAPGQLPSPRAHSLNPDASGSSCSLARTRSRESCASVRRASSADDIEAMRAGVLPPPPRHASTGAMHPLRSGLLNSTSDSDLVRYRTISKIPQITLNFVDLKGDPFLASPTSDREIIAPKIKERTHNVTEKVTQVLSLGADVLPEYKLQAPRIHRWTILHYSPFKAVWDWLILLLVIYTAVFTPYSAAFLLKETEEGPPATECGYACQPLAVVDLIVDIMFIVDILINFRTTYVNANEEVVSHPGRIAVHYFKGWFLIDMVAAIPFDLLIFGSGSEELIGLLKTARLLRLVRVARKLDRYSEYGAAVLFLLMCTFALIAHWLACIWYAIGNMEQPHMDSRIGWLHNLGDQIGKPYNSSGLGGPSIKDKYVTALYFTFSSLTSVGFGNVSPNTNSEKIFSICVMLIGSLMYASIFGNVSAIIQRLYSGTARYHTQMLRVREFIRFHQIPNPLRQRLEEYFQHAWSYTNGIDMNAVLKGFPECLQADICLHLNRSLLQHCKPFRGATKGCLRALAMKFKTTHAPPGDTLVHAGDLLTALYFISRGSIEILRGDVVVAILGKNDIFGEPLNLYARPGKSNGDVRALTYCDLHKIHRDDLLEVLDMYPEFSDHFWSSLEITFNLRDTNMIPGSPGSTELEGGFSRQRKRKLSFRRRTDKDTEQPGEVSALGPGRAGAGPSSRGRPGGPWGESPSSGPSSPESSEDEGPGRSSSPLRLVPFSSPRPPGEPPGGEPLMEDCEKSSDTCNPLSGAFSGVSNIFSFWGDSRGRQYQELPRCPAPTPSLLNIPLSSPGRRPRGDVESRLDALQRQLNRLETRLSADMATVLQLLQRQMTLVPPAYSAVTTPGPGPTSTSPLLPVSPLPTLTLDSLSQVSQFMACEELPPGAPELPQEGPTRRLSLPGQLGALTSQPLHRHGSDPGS

Going from `Cc1ccc2c(c1)COc1c3ccc(C(=O)N4CCCCC4)cc3nn1-2` to `Cc1cccc(N2CCN(C(=O)N3CCCCC3)CC2)c1C`, the “hERG current change (%, negative = inhibition) at 1uM” value falls from 5.17% to 3.13%.

Going from `CCOC(=O)c1cc(C(=O)Nc2ccc(S(=O)(=O)Nc3ccc(OC)cc3)cc2)nn1C` to `COc1ccc(NS(=O)(=O)c2ccc(N3CCCC3)c(NC(=S)Nc3cccc(S(=O)(=O)N(C)C)c3)c2)cc1`, the “hERG current change (%, negative = inhibition) at 1uM” value falls from 17.8% to 8.47%.

Compared with `Cc1ccc(S(=O)(=O)NCc2cccnc2)c(C)c1`, `Cc1ccc(S(=O)(=O)N(Cc2ccccc2)c2ccccn2)cc1[N+](=O)[O-]` is lower in “hERG current change (%, negative = inhibition) at 1uM” value: 13% for the first, 10.4% for the second.

Compared with `CCSc1nc2ccccc2n1C(=O)/C=C/c1ccc(OC)c(OC)c1`, `COc1ccc(NC(=O)c2cc(CN3C(=O)c4ccccc4C3=O)ccc2OC)cn1` is higher in “hERG current change (%, negative = inhibition) at 1uM” value: 2.17% for the first, 5.63% for the second.

Going from `Cc1cc2c(cc1S(=O)(=O)N1CCN(c3cccc(C(F)(F)F)c3)CC1)OCC(=O)N2` to `COc1ccc(CN2C(=O)c3cccnc3C2=O)cc1S(=O)(=O)N1CCCCC1`, the “hERG current change (%, negative = inhibition) at 1uM” value rises from 12.3% to 19.4%.

First: O=C1c2ccc3c4c(ccc(c24)C(=O)N1c1cccc(O)c1)CC3
Second: O=C1/C(=C\c2ccc([N+](=O)[O-])cc2)CCc2ccccc21
The “hERG current change (%, negative = inhibition) at 1uM” value of the first is lower: 3.82% for the first, 9.66% for the second.

First: O=C(CC1C(=O)NCCN1Cc1ccccn1)NCCc1ccccc1F (stereo not drawn)
Second: Cc1ccc(/C=N/NC(=O)CSc2ccccn2)o1
The “hERG current change (%, negative = inhibition) at 1uM” value of the first is higher: 12.6% for the first, 8.82% for the second.

First: O=C(C[n+]1ccc2ccccc2c1)c1ccccc1.[Br-]
Second: Cc1ccccc1NP(=O)(c1ccccc1)c1nc2ccccc2s1 (stereo not drawn)
The “hERG current change (%, negative = inhibition) at 1uM” value of the first is lower: 5.95% for the first, 8.71% for the second.

First: COc1ccc(-c2nc(CS(=O)(=O)CC(=O)NCc3cccc(F)c3)c(C)o2)cc1
Second: COc1ccc(-c2nnc(SCC(=O)Nc3cc(F)ccc3C)o2)cc1
The “hERG current change (%, negative = inhibition) at 1uM” value of the first is higher: 9.79% for the first, 3.71% for the second.

Compared with `CCc1cccc(Oc2nn[nH]n2)c1`, `Cc1ccsc1/C=N/n1c(COc2ccccc2)n[nH]c1=S` is higher in “hERG current change (%, negative = inhibition) at 1uM” value: 1.13% for the first, 14.2% for the second.

Going from `COc1cc(C(C(=O)NC2CCCC2)N(C(=O)Cc2cccs2)C2CC2)cc(OC)c1OC` (stereo not drawn) to `Cc1cc(NC(=O)CCC(=O)N(Cc2cccs2)C(C(=O)NC2CCCC2)c2ccccc2)no1` (stereo not drawn), the “hERG current change (%, negative = inhibition) at 1uM” value falls from 9.2% to 2.23%.

Compared with `O=C(Nc1ccc(S(=O)(=O)C(F)F)cc1)c1ccc2c(=O)n3c(nc2c1)CCC3`, `CC(=O)c1c(C)oc2ccc(NS(=O)(=O)c3ccc(C(=O)O)cc3)cc12` is lower in “hERG current change (%, negative = inhibition) at 1uM” value: 19.4% for the first, 10.7% for the second.

Going from `CN(Cc1c(C(=O)N/N=C/c2ccc(F)cc2)nnn1-c1nonc1N)C1CCCCC1` to `CC(C)(C)NS(=O)(=O)c1ccc(NC(=O)C2CCCCC2)cc1`, the “hERG current change (%, negative = inhibition) at 1uM” value rises from 3.86% to 7.62%.

First: CCN(C1CCCCC1)S(=O)(=O)c1cn(C)c(=O)n(C)c1=O
Second: O=C(CN1C(=O)NC(Cc2ccccc2)C1=O)NC(=O)NC1CCCCC1 (stereo not drawn)
The “hERG current change (%, negative = inhibition) at 1uM” value of the first is lower: 7.04% for the first, 10.7% for the second.

First: NCCCC[C@H]1CN=C(N)N1CCC12CC3CC(CC(C3)C1)C2
Second: CC1CCC(C(C)C)C(OC(=O)COC(=O)c2cc(O)ccc2N)C1 (stereo not drawn)
The “hERG current change (%, negative = inhibition) at 1uM” value of the first is higher: 18.2% for the first, 8.95% for the second.

Compared with `CCn1c(SCC(=O)NC2CCCC2)nnc1C(C)C`, `CC(C)Cc1ccc(CN2CCCC(NC(=O)c3ccnn3C)C2)cc1` (stereo not drawn) is lower in “hERG current change (%, negative = inhibition) at 1uM” value: 11.2% for the first, -50.4% for the second.

First: Cc1cccc(C)c1NC(=O)C1(N2C(=O)CC2c2ccccc2)CCCCC1 (stereo not drawn)
Second: Cc1ccc(CN2CCC(n3nccc3NC(=O)c3ccccc3C)CC2)o1
The “hERG current change (%, negative = inhibition) at 1uM” value of the first is higher: 9.45% for the first, -3.41% for the second.

Going from `CCOc1nc(NCCN2CCOCC2)nc(Nc2ccc(C)cc2)n1` to `Cc1ccc(C2=NS(=O)(=O)N(C)C(C(=O)N3CCOCC3)=C2)cc1`, the “hERG current change (%, negative = inhibition) at 1uM” value rises from -34.1% to -8.93%.

Compared with `Cc1ccsc1CN(C)C(=O)CN1C(=O)NC2(CCCCC2C)C1=O` (stereo not drawn), `Cc1cc(C)cc(N(CC(=O)NC2CCCC2)C(=O)C2(C)CC(=O)N=C3C=CC=CN32)c1` (stereo not drawn) is higher in “hERG current change (%, negative = inhibition) at 1uM” value: 1.94% for the first, 17.2% for the second.

First: CN/N=C/c1ccc(C#N)cc1
Second: CC1(C)CC(=O)C(C=Nc2ccc(N)cc2)=C(O)C1
The “hERG current change (%, negative = inhibition) at 1uM” value of the first is lower: -1.27% for the first, 6.91% for the second.

First: CCOC(=O)CSc1nnc(NC(=O)CN2CCN(C=O)CC2)s1
Second: Cc1ccc(NC(=O)CN(C)C(=O)CSc2nncn2C)cc1
The “hERG current change (%, negative = inhibition) at 1uM” value of the first is higher: 11% for the first, 9.49% for the second.

First: Cc1ccc(C)c(N2CCN(CCCNC(=O)Cn3cc4c(n3)CCCCC4)CC2)c1
Second: COc1ccccc1N1CCN(C(=O)c2noc(C)c2[N+](=O)[O-])CC1
The “hERG current change (%, negative = inhibition) at 1uM” value of the first is lower: -43.4% for the first, 14.1% for the second.

Compared with `COCCn1c(C)cc(C(=O)COC(=O)c2cccc(O)c2)c1C`, `COC(=O)CCn1c(C)cc(C(=O)COc2ccccc2C(N)=O)c1C` is lower in “hERG current change (%, negative = inhibition) at 1uM” value: 11% for the first, 2.65% for the second.

First: COc1cc(C2C(C#N)=C(N)Oc3c2oc(CO)cc3=O)cc(OC)c1OC (stereo not drawn)
Second: COc1cc(CNCc2ccc(Br)cc2)cc(OC)c1.O=C(O)C(=O)O
The “hERG current change (%, negative = inhibition) at 1uM” value of the first is higher: 16.4% for the first, 14.6% for the second.

Going from `COC(=O)Cc1cnc(NC(=O)C2C3CCC(C3)C2C(=O)O)s1` (stereo not drawn) to `O=C(O)c1cccc(NC(=O)C2C3C=CC(C3)C2C(=O)OCC(F)(F)C(F)F)c1` (stereo not drawn), the “hERG current change (%, negative = inhibition) at 1uM” value rises from -4.16% to 8.48%.

First: Cc1ccc(Cn2cnc3c(cnn3-c3ccc(F)cc3)c2=O)cc1
Second: COc1ccc(-c2nc3ccccc3c(=O)n2CCc2ccc(O)cc2)cc1
The “hERG current change (%, negative = inhibition) at 1uM” value of the first is higher: 13.1% for the first, 4.44% for the second.

First: Cc1ccc(C)c(SCC(=O)OCC(=O)Nc2ncc(C(F)(F)F)cc2Cl)c1
Second: Cc1ccc(C)c(NC(=O)CSc2nnc(-c3n[nH]c4ccccc34)o2)c1
The “hERG current change (%, negative = inhibition) at 1uM” value of the first is higher: 14.9% for the first, 1.23% for the second.

Going from `CN1CCN(c2ccc(NC(=S)NC(=O)c3cccc4ccccc34)cc2)CC1` to `CCC(=O)NC(=S)Nc1ccc(S(=O)(=O)N2CCN(C)CC2)cc1`, the “hERG current change (%, negative = inhibition) at 1uM” value falls from 8.94% to 0.669%.

Going from `COCCN(C(=O)COC(=O)Cc1c[nH]c2ccccc12)c1c(N)n(Cc2ccccc2)c(=O)[nH]c1=O` to `COc1ccccc1C(=O)NC(=O)COC(=O)CCNS(=O)(=O)c1ccccc1`, the “hERG current change (%, negative = inhibition) at 1uM” value falls from 15.4% to 3.37%.

First: COC(=O)CSc1ccc(C#N)c(SCC(=O)OC)c1
Second: O=C(CNC(=O)c1ccco1)OCc1cccc(Cl)c1
The “hERG current change (%, negative = inhibition) at 1uM” value of the first is higher: 12.6% for the first, 7.61% for the second.

First: CCC(Sc1ncnc2sc(C)c(C)c12)C(=O)OC (stereo not drawn)
Second: Cc1ncsc1C(=O)Nc1nc2c(s1)CCCC2
The “hERG current change (%, negative = inhibition) at 1uM” value of the first is higher: 11.3% for the first, 8.42% for the second.

First: CCCCN1/C(=C/c2cccc[n+]2C)Sc2cc(NC(C)=O)ccc21.[I-]
Second: COc1cccc(/C=C2\C(=O)C(=O)c3ccccc32)c1
The “hERG current change (%, negative = inhibition) at 1uM” value of the first is higher: 6.72% for the first, 3.29% for the second.

First: C=CCN(CC=C)C(=O)C1CCN(S(=O)(=O)c2ccc(-n3cnnn3)cc2)CC1
Second: C=CCCC(=O)N1CCC(n2nccc2NC(=O)c2ccc(OC)cc2)CC1
The “hERG current change (%, negative = inhibition) at 1uM” value of the first is lower: -13.1% for the first, 10.1% for the second.

First: Cc1nn(-c2ccccc2)c2c1C(=O)N(c1ccccc1)C(=O)C(C)(C)C2
Second: Cc1nn(-c2ccccc2)c(C)c1P(=O)(c1ccccc1)N(C)C (stereo not drawn)
The “hERG current change (%, negative = inhibition) at 1uM” value of the first is lower: -0.52% for the first, 15% for the second.

Compared with `Cc1nc2nc(NC(=O)c3ccco3)[nH]n2c(=O)c1C`, `Cc1nc2c(C(=O)N3CCOCC3)cnn2c(C)c1Cc1ccc(Cl)cc1` is lower in “hERG current change (%, negative = inhibition) at 1uM” value: 15% for the first, -7.05% for the second.

Compared with `O=C1C=C(c2cccc3c2sc2ccccc23)C[C@@H](c2ccc(F)cc2)C1`, `Cc1ccc(C)c(-c2cc(C(=O)NCc3cccs3)c3ccccc3n2)c1` is lower in “hERG current change (%, negative = inhibition) at 1uM” value: 19% for the first, 5.13% for the second.

Compared with `Cc1cccn2c(=O)c(C=Nc3ccc(Cl)cc3)c(NCCO)nc12`, `O=C(O)COc1c(-c2ccc(Cl)cc2)oc2ccccc2c1=O` is higher in “hERG current change (%, negative = inhibition) at 1uM” value: 9.55% for the first, 15.4% for the second.

Going from `CCOc1ccccc1OCc1nn2c(-c3ccc(C)cc3)nnc2s1` to `Cc1ccc(C2=NOC(C)(c3sc(-c4ccc(Cl)cc4)nc3C)C2)cc1` (stereo not drawn), the “hERG current change (%, negative = inhibition) at 1uM” value falls from 11.9% to 2.1%.

Going from `CC(OC(=O)c1cccc(S(=O)(=O)Nc2cccc(C(F)(F)F)c2)c1)C(=O)Nc1ccc2c(c1)OCCO2` (stereo not drawn) to `CCOc1ccc(CCNC(=O)C2CC(=O)N(c3ccc4c(c3)OCCO4)C2)cc1OCC` (stereo not drawn), the “hERG current change (%, negative = inhibition) at 1uM” value rises from 3.98% to 11.7%.

First: CCC(=O)NC(Nc1cc(C)ccn1)(C(F)(F)F)C(F)(F)F
Second: Cc1cc(C)n(CC(O)COc2ccc(Cl)cc2)n1 (stereo not drawn)
The “hERG current change (%, negative = inhibition) at 1uM” value of the first is lower: 15% for the first, 18.3% for the second.

First: O=C(N/N=C/C(Br)=C/c1ccccc1)c1cnccn1
Second: Nc1nnnn1/N=C/c1ccccn1
The “hERG current change (%, negative = inhibition) at 1uM” value of the first is higher: 9.36% for the first, -4.38% for the second.

Compared with `CCOc1ccc(Nc2nc(Cc3nnc(SCC(=O)NCC4CCCO4)n3C)cs2)cc1` (stereo not drawn), `COc1ccc2[nH]c(C(=O)N3CCC(Cc4ccccc4)CC3)cc2c1` is higher in “hERG current change (%, negative = inhibition) at 1uM” value: -2.96% for the first, 11.2% for the second.

Compared with `Cc1ccc(Nc2ccc([N+](=O)[O-])nc2[N+](=O)[O-])cc1`, `COc1ccc(C)cc1S(=O)(=O)Nc1cc2c3c(c1)CCN3C(=O)CC2` is lower in “hERG current change (%, negative = inhibition) at 1uM” value: 9.24% for the first, -0.279% for the second.

With `CC(=O)N1CCc2c(sc(NC(=O)Cc3ccccc3)c2C(N)=O)C1` the “hERG current change (%, negative = inhibition) at 1uM” value was 4.87%.
